No constants are given. Whether binding was seen depends on the method and setting. In cells and extracts the contact can be indirect. Some binding calls cover weakened binding; strength is not graded here.
What was measured:
[1] = target: ADP-ribosylation factor 6 (Arf6) (human (endogenous in MCF10A)) (UniProt P62330); assay: co-IP; immunoprecipitation of endogenous Arf6 from MCF10A lysates (1% Triton X-100, 100 mM NaCl, 50 mM Tris-HCl pH 7.4), blots for GGA3 and Rabaptin5; cells transfected with control or ErbB3 siRNA, PQ or vehicle for 10 min
[2] = target: ErbB3 (HER3) receptor (human (endogenous in MCF10A)) (UniProt P21860); assay: co-IP; immunoprecipitation of endogenous ErbB3 (antibody 2F12) from MCF10A lysates (1% NP-40, 0.5% deoxycholate, 0.1% SDS, 150 mM NaCl, 50 mM Tris pH 8.0, 1 mM EDTA), blots for GGA3 and Rabaptin5; with or without 30 min primaquine (PQ); IgG as negative control
[3] = target: Flag-ErbB3 (wild type) (UniProt P21860); assay: co-IP; GGA3 overexpressed with or without ErbB3 WT or LL866/7AA in HEK293T cells; immunoprecipitation of ErbB3, blot for GGA3
[4] = target: LL866/7AA mutant Flag-ErbB3 (UniProt P21860); assay: as above
[5] = target: Arf6 (ectopically expressed) (UniProt P62330); assay: co-IP; Arf6, GGA3 and Rabaptin5 expressed ectopically in HEK293T cells with or without WT or LL866/7AA ErbB3; immunoprecipitation of Arf6, blots for ErbB3, GGA3 and Rabaptin5

Sequences of proteins named here, by UniProt entry; tags and fusion partners are left off. A change or cut given only in a name is not applied to a line headed by its entry. A line that says so, or that is headed by a name, gives the form on record, which may keep a tag or linker. Residues count along the entry.
UniProt P62330: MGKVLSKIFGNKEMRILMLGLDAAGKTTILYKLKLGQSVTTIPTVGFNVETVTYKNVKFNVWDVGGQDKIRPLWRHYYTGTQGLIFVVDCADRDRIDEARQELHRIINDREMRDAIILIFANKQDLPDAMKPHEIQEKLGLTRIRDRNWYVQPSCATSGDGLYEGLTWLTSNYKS
Flag-ErbB3 (wild type) (P21860, residues 20-1342): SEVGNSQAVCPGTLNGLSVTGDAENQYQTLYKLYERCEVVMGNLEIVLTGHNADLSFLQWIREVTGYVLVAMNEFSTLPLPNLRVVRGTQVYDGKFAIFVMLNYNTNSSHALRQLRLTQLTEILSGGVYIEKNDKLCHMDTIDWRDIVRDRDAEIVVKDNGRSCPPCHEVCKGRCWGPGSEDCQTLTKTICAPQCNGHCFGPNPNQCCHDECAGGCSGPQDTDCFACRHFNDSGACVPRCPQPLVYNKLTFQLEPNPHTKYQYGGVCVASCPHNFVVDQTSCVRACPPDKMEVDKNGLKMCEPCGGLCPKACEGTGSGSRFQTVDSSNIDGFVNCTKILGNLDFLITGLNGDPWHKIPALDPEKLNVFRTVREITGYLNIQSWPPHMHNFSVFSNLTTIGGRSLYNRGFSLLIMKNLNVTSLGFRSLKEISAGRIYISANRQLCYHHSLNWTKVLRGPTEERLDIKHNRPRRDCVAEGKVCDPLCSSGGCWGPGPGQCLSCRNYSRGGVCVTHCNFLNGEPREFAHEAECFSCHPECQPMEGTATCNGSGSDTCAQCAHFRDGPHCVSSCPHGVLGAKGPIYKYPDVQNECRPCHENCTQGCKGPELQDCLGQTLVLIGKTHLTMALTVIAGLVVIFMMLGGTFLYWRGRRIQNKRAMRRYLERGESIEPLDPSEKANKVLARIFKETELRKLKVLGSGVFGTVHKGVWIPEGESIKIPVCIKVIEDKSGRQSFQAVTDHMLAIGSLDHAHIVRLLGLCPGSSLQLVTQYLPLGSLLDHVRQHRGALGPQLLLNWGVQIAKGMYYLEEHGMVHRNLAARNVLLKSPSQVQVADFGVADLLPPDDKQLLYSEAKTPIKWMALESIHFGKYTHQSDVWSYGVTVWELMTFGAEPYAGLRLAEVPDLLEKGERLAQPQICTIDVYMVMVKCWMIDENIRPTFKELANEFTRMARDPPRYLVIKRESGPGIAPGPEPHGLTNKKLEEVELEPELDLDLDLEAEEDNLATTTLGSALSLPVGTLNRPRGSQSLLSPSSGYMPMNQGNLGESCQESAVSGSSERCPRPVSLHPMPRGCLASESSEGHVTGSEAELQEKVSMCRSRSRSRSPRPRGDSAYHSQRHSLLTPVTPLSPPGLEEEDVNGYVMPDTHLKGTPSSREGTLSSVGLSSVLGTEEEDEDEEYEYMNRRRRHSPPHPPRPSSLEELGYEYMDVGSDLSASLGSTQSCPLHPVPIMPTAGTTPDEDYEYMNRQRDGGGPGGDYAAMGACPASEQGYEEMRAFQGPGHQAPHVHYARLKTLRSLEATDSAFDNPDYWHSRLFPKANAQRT
LL866/7AA mutant Flag-ErbB3 (P21860, form named): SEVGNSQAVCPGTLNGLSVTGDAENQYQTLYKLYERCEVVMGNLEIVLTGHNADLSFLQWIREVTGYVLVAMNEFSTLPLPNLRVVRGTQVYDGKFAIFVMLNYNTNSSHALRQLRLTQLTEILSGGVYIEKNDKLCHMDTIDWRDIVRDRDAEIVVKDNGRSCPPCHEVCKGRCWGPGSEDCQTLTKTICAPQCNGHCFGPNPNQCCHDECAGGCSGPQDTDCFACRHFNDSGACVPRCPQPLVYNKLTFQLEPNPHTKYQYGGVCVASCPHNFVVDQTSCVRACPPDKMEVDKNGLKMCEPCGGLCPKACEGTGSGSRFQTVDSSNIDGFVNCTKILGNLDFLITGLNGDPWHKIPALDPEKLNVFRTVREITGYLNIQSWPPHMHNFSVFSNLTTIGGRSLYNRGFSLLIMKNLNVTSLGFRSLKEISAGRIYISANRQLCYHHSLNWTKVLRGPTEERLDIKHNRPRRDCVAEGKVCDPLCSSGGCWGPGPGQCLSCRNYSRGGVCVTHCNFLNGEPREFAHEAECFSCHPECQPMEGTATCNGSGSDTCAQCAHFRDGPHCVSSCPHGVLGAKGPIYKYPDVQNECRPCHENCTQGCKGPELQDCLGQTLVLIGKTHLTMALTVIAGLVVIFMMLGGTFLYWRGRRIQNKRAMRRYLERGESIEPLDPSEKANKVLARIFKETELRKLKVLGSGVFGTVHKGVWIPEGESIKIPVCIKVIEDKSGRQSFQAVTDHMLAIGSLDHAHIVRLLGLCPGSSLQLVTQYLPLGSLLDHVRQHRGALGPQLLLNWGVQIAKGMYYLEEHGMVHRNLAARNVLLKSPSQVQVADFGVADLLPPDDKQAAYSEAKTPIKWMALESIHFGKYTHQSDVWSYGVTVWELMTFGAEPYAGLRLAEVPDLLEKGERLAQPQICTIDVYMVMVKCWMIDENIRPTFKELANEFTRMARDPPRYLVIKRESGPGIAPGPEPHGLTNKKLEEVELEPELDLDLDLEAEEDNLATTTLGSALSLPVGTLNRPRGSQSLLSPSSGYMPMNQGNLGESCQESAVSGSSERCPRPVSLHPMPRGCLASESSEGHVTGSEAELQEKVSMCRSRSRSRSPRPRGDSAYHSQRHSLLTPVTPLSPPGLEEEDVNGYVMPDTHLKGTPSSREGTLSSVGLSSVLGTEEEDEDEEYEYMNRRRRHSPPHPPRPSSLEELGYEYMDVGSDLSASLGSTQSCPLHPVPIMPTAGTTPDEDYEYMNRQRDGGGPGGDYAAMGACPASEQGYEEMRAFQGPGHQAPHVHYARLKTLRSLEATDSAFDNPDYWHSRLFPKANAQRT

B1: Golgi-associated gamma adaptin ear containing ADP-ribosylation factor-binding protein 3 (GGA3) (protein, UniProt Q9NZ52 1-723)
chain: MAEAEGESLESWLNKATNPSNRQEDWEYIIGFCDQINKELEGPQIAVRLLAHKIQSPQEWEALQALTVLEACMKNCGRRFHNEVGKFRFLNELIKVVSPKYLGDRVSEKVKTKVIELLYSWTMALPEEAKIKDAYHMLKRQGIVQSDPPIPVDRTLIPSPPPRPKNPVFDDEEKSKLLAKLLKSKNPDDLQEANKLIKSMVKEDEARIQKVTKRLHTLEEVNNNVRLLSEMLLHYSQEDSSDGDRELMKELFDQCENKRRTLFKLASETEDNDNSLGDILQASDNLSRVINSYKTIIEGQVINGEVATLTLPDSEGNSQCSNQGTLIDLAELDTTNSLSSVLAPAPTPPSSGIPILPPPPQASGPPRSRSSSQAEATLGPSSTSNALSWLDEELLCLGLADPAPNVPPKESAGNSQWHLLQREQSDLDFFSPRPGTAACGASDAPLLQPSAPSSSSSQAPLPPPFPAPVVPASVPAPSAGSSLFSTGVAPALAPKVEPAVPGHHGLALGNSALHHLDALDQLLEEAKVTSGLVKPTTSPLIPTTTPARPLLPFSTGPGSPLFQPLSFQSQGSPPKGPELSLASIHVPLESIKPSSALPVTAYDKNGFRILFHFAKECPPGRPDVLVVVVSMLNTAPLPVKSIVLQAAVPKSMKVKLQPPSGTELSPFSPIQPPAAITQVMLLANPLKEKVRLRYKLTFALGEQLSTEVGEVDQFPPVEQWGNL
In the case of B1, the binding [1] is reported as “binds” and the binding [2] is reported as “binds”.

B2: Rab GTPase-binding effector protein 1 (Rabaptin5) (protein, UniProt Q15276 1-862)
chain: MAQPGPASQPDVSLQQRVAELEKINAEFLRAQQQLEQEFNQKRAKFKELYLAKEEDLKRQNAVLQAAQDDLGHLRTQLWEAQAEMENIKAIATVSENTKQEAIDEVKRQWREEVASLQAVMKETVRDYEHQFHLRLEQERTQWAQYRESAEREIADLRRRLSEGQEEENLENEMKKAQEDAEKLRSVVMPMEKEIAALKDKLTEAEDKIKELEASKVKELNHYLEAEKSCRTDLEMYVAVLNTQKSVLQEDAEKLRKELHEVCHLLEQERQQHNQLKHTWQKANDQFLESQRLLMRDMQRMEIVLTSEQLRQVEELKKKDQEDDEQQRLNKRKDHKKADVEEEIKIPVVCALTQEESSAQLSNEEEHLDSTRGSVHSLDAGLLLPSGDPFSKSDNDMFKDGLRRAQSTDSLGTSGSLQSKALGYNYKAKSAGNLDESDFGPLVGADSVSENFDTASLGSLQMPSGFMLTKDQERAIKAMTPEQEETASLLSSVTQGMESAYVSPSGYRLVSETEWNLLQKEVHNAGNKLGRRCDMCSNYEKQLQGIQIQEAETRDQVKKLQLMLRQANDQLEKTMKDKQELEDFIKQSSEDSSHQISALVLRAQASEILLEELQQGLSQAKRDVQEQMAVLMQSREQVSEELVRLQKDNDSLQGKHSLHVSLQQAEDFILPDTTEALRELVLKYREDIINVRTAADHVEEKLKAEILFLKEQIQAEQCLKENLEETLQLEIENCKEEIASISSLKAELERIKVEKGQLESTLREKSQQLESLQEIKISLEEQLKKETAAKATVEQLMFEEKNKAQRLQTELDVSEQVQRDFVKLSQTLQVQLERIRQADSLERIRAILNDTKLTDINQLPET
For B2, the binding [1] was “binds” and the binding [2] was “binds”.

B3: GGA3 (overexpressed) (protein, UniProt Q9NZ52 1-723)
chain: MAEAEGESLESWLNKATNPSNRQEDWEYIIGFCDQINKELEGPQIAVRLLAHKIQSPQEWEALQALTVLEACMKNCGRRFHNEVGKFRFLNELIKVVSPKYLGDRVSEKVKTKVIELLYSWTMALPEEAKIKDAYHMLKRQGIVQSDPPIPVDRTLIPSPPPRPKNPVFDDEEKSKLLAKLLKSKNPDDLQEANKLIKSMVKEDEARIQKVTKRLHTLEEVNNNVRLLSEMLLHYSQEDSSDGDRELMKELFDQCENKRRTLFKLASETEDNDNSLGDILQASDNLSRVINSYKTIIEGQVINGEVATLTLPDSEGNSQCSNQGTLIDLAELDTTNSLSSVLAPAPTPPSSGIPILPPPPQASGPPRSRSSSQAEATLGPSSTSNALSWLDEELLCLGLADPAPNVPPKESAGNSQWHLLQREQSDLDFFSPRPGTAACGASDAPLLQPSAPSSSSSQAPLPPPFPAPVVPASVPAPSAGSSLFSTGVAPALAPKVEPAVPGHHGLALGNSALHHLDALDQLLEEAKVTSGLVKPTTSPLIPTTTPARPLLPFSTGPGSPLFQPLSFQSQGSPPKGPELSLASIHVPLESIKPSSALPVTAYDKNGFRILFHFAKECPPGRPDVLVVVVSMLNTAPLPVKSIVLQAAVPKSMKVKLQPPSGTELSPFSPIQPPAAITQVMLLANPLKEKVRLRYKLTFALGEQLSTEVGEVDQFPPVEQWGNL
With B3 the binding [3] was “binds”, the binding [4] was “no binding” and the binding [5] was “binds”.

B4: Rabaptin5 (ectopically expressed) (protein, UniProt Q15276 1-862)
chain: MAQPGPASQPDVSLQQRVAELEKINAEFLRAQQQLEQEFNQKRAKFKELYLAKEEDLKRQNAVLQAAQDDLGHLRTQLWEAQAEMENIKAIATVSENTKQEAIDEVKRQWREEVASLQAVMKETVRDYEHQFHLRLEQERTQWAQYRESAEREIADLRRRLSEGQEEENLENEMKKAQEDAEKLRSVVMPMEKEIAALKDKLTEAEDKIKELEASKVKELNHYLEAEKSCRTDLEMYVAVLNTQKSVLQEDAEKLRKELHEVCHLLEQERQQHNQLKHTWQKANDQFLESQRLLMRDMQRMEIVLTSEQLRQVEELKKKDQEDDEQQRLNKRKDHKKADVEEEIKIPVVCALTQEESSAQLSNEEEHLDSTRGSVHSLDAGLLLPSGDPFSKSDNDMFKDGLRRAQSTDSLGTSGSLQSKALGYNYKAKSAGNLDESDFGPLVGADSVSENFDTASLGSLQMPSGFMLTKDQERAIKAMTPEQEETASLLSSVTQGMESAYVSPSGYRLVSETEWNLLQKEVHNAGNKLGRRCDMCSNYEKQLQGIQIQEAETRDQVKKLQLMLRQANDQLEKTMKDKQELEDFIKQSSEDSSHQISALVLRAQASEILLEELQQGLSQAKRDVQEQMAVLMQSREQVSEELVRLQKDNDSLQGKHSLHVSLQQAEDFILPDTTEALRELVLKYREDIINVRTAADHVEEKLKAEILFLKEQIQAEQCLKENLEETLQLEIENCKEEIASISSLKAELERIKVEKGQLESTLREKSQQLESLQEIKISLEEQLKKETAAKATVEQLMFEEKNKAQRLQTELDVSEQVQRDFVKLSQTLQVQLERIRQADSLERIRAILNDTKLTDINQLPET
In the case of B4, the binding [5] is reported as “binds”.
